# Results: the supplement of paper PMC8728848
# The list shows a part of the results.
# B1: rCnSL-proA (Clitocybe nebularis) (protein)
# chain: AAFFSLVVLLALLPFGIHASALPSTELTPRVNPNLPGPNDVFVGFRGTNNIVGAIYEKDGIKDTPLNNGADAEMGPGSYITDGLFTARIFASGSAGNNPGTTATVCKIYASGVQWRGAPKGYIPVAYFGNGPTAEQRRQTYLRTLGLPGTAIRFGNLNTNPGQGPTAPRQMVVPPGPLRSLLKASCFPAADTRLPQTLHYFEKRVDWNIITAADSQTWGH
# What was measured:
# Experiment in all cases: glycan array binding signal (z-score within array); higher = stronger binding
# Conditions in all cases: glycan notation: IUPAC condensed, linker removed
# Gal(b1-4)Glc = target: Gal(b1-4)Glc
# Procedure, shortened: (§1)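 Columns mapping to the same glycan were averaged after glycan names were converted to IUPAC-condensed notation. The data come from 3228 arrays in the Consortium for Functional Glycomics database, limited to those with an available protein sequence. Binding is reported as a within-array Z-score averaged across arrays of one protein sequence and across linkers.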
# Gal(b1-4)Glc6S = target: Gal(b1-4)Glc6S
# Procedure, shortened: as §1
# Gal(b1-4)GlcNAc = target: Gal(b1-4)GlcNAc
# Procedure, shortened: as §1
# [1] = target: Gal(b1-4)GlcNAc(a1-6)Gal(b1-4)GlcNAc
# Procedure, shortened: as §1
# Gal(b1-4)GlcNAc(b1-2)Man = target: Gal(b1-4)GlcNAc(b1-2)Man
# Procedure, shortened: as §1
# [2] = target: Gal(b1-4)GlcNAc(b1-2)Man(a1-3)Man(b1-4)GlcNAc(b1-4)GlcNAc
# Procedure, shortened: as §1
# [3] = target: Gal(b1-4)GlcNAc(b1-2)Man(a1-3)[Gal(b1-4)GlcNAc(b1-2)Man(a1-6)]Man(b1-4)GlcNAc(b1-4)GlcNAc
# Procedure, shortened: as §1
# [4] = target: Gal(b1-4)GlcNAc(b1-2)Man(a1-3)[Gal(b1-4)GlcNAc(b1-2)Man(a1-6)]Man(b1-4)GlcNAc(b1-4)[Fuc(a1-6)]GlcNAc
# Procedure, shortened: as §1
# [5] = target: Gal(b1-4)GlcNAc(b1-2)Man(a1-3)[Gal(b1-4)GlcNAc(b1-2)Man(a1-6)][Gal(b1-4)GlcNAc(b1-4)]Man(b1-4)GlcNAc(b1-4)[Fuc(a1-6)]GlcNAc
# Procedure, shortened: as §1
# [6] = target: Gal(b1-4)GlcNAc(b1-2)Man(a1-3)[Gal(b1-4)GlcNAc(b1-2)Man(a1-6)][GlcNAc(b1-4)]Man(b1-4)GlcNAc(b1-4)[Fuc(a1-6)]GlcNAc
# Procedure, shortened: as §1
# [7] = target: Gal(b1-4)GlcNAc(b1-2)Man(a1-3)[GlcNAc(b1-2)Man(a1-6)]Man(b1-4)GlcNAc(b1-4)GlcNAc
# Procedure, shortened: as §1
# [8] = target: Gal(b1-4)GlcNAc(b1-2)Man(a1-3)[GlcNAc(b1-4)][Gal(b1-4)GlcNAc(b1-2)Man(a1-6)]Man(b1-4)GlcNAc(b1-4)GlcNAc
# Procedure, shortened: as §1
# [9] = target: Gal(b1-4)GlcNAc(b1-2)Man(a1-3)[Man(a1-6)]Man(b1-4)GlcNAc(b1-4)GlcNAc
# Procedure, shortened: as §1
# [10] = target: Gal(b1-4)GlcNAc(b1-2)Man(a1-6)Man(b1-4)GlcNAc(b1-4)GlcNAc
# Procedure, shortened: as §1
# [11] = target: Gal(b1-4)GlcNAc(b1-2)Man(a1-6)[GlcNAc(b1-2)Man(a1-3)]Man(b1-4)GlcNAc(b1-4)GlcNAc
# Procedure, shortened: as §1
# [12] = target: Gal(b1-4)GlcNAc(b1-2)Man(a1-6)[Man(a1-3)]Man(b1-4)GlcNAc(b1-4)GlcNAc
# Procedure, shortened: as §1
# [13] = target: Gal(b1-4)GlcNAc(b1-2)[Gal(b1-4)GlcNAc(b1-4)]Man(a1-3)[Gal(b1-4)GlcNAc(b1-2)Man(a1-6)]Man(b1-4)GlcNAc(b1-4)GlcNAc
# Procedure, shortened: as §1
# [14] = target: Gal(b1-4)GlcNAc(b1-2)[Gal(b1-4)GlcNAc(b1-4)]Man(a1-3)[Gal(b1-4)GlcNAc(b1-2)[Gal(b1-4)GlcNAc(b1-6)]Man(a1-6)]Man(b1-4)GlcNAc(b1-4)GlcNAc
# Procedure, shortened: as §1
# [15] = target: Gal(b1-4)GlcNAc(b1-2)[Gal(b1-4)GlcNAc(b1-4)]Man(a1-3)[GlcNAc(b1-4)][Gal(b1-4)GlcNAc(b1-2)Man(a1-6)]Man(b1-4)GlcNAc(b1-4)GlcNAc
# Procedure, shortened: as §1
# [16] = target: Gal(b1-4)GlcNAc(b1-2)[Gal(b1-4)GlcNAc(b1-4)]Man(a1-3)[GlcNAc(b1-4)][Gal(b1-4)GlcNAc(b1-2)[Gal(b1-4)GlcNAc(b1-6)]Man(a1-6)]Man(b1-4)GlcNAc(b1-4)GlcNAc
# Procedure, shortened: as §1
# [17] = target: Gal(b1-4)GlcNAc(b1-2)[Gal(b1-4)GlcNAc(b1-6)]Man(a1-6)[Gal(b1-4)GlcNAc(b1-2)Man(a1-3)]Man(b1-4)GlcNAc(b1-4)GlcNAc
# Procedure, shortened: as §1
# [18] = target: Gal(b1-4)GlcNAc(b1-2)[Gal(b1-4)GlcNAc(b1-6)]Man(a1-6)[Gal(b1-4)GlcNAc(b1-2)Man(a1-3)]Man(b1-4)GlcNAc(b1-4)[Fuc(a1-6)]GlcNAc
# Procedure, shortened: as §1
binder,measurement,setting,value
B1,glycan array binding signal (z-score),Gal(b1-4)Glc,0.103
same,glycan array binding signal (z-score),Gal(b1-4)Glc6S,-0.424
same,glycan array binding signal (z-score),Gal(b1-4)GlcNAc,-0.22
same,glycan array binding signal (z-score),[1],3.94
same,glycan array binding signal (z-score),Gal(b1-4)GlcNAc(b1-2)Man,-0.205
same,glycan array binding signal (z-score),[2],0.14
same,glycan array binding signal (z-score),[3],0.004
same,glycan array binding signal (z-score),[4],0.559
same,glycan array binding signal (z-score),[5],0.197
same,glycan array binding signal (z-score),[6],-0.263
same,glycan array binding signal (z-score),[7],-0.932
same,glycan array binding signal (z-score),[8],-0.267
same,glycan array binding signal (z-score),[9],-0.19
same,glycan array binding signal (z-score),[10],-0.194
same,glycan array binding signal (z-score),[11],-0.518
same,glycan array binding signal (z-score),[12],-0.587
same,glycan array binding signal (z-score),[13],0.465
same,glycan array binding signal (z-score),[14],2.99
same,glycan array binding signal (z-score),[15],0.523
same,glycan array binding signal (z-score),[16],1.02
same,glycan array binding signal (z-score),[17],2.07
same,glycan array binding signal (z-score),[18],3.41
